# Assay results: PubChem BioAssay AID1345083 (National Center for Advancing Translational Sciences (NCATS), 2018)
# The campaign covered roughly 94,000 compounds. About 6,200 (6.6%) were called active. This list was built around the results that the source calls inconclusive (neither active nor inactive); the mix of calls is not that of the screen. Calls come from the whole dose curve; as a rule, active = well fitted inhibition curve with a large enough effect; inconclusive = small, poorly fitted or top-dose-only effect; inactive = flat fitted curve, though single readings scatter. A potency beside an inconclusive call is a rough fit, not a confirmed value.
# Experiment: Cytotoxic Profiling in HEK 293 Cell Line of Diverse Libraries Using Quantitative High-Throughput Screening; note: nearly all actives have a fitted effect of over 60% in size
# Conditions: HEK 293 viability, ATP luminescence (CellTiter-Glo), 48-72 h; series mostly up to 115 µM
# Method in brief: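 Viability of HEK 293 cells, plated at 250 cells/well, was judged by cellular ATP after compound treatment for 48 or 72 hr. Luminescence was imaged 10 min after CellTiter-Glo addition at room temperature.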
# Potency is the fitted concentration of half-maximal effect; tags give direction and shape of the fitted curve.
row,SMILES,Potency
1,CC(C)CN1C(=O)c2ccccc2C(C(=O)Nc2ccncc2)C12CCCC2 (stereo not drawn),"inconclusive: 89.1 µM [inhibitor, single point]"
2,O=C(Nc1ccccc1)N1CCCC(c2nc(CCOCC3CCCC3)no2)C1 (stereo not drawn),"inconclusive: 44.7 µM [inhibitor, partial curve, poor fit]"
3,COc1ccc(C(=O)N2CCOCC3(CN(Cc4cccc(Cl)c4)C3)C2)cc1OC,active: 44.7 µM
4,O=C1CC(c2ccccc2)N(Cc2ccc3c(c2)CCO3)CCCCCCN1 (stereo not drawn),"inconclusive: 50.1 µM [inhibitor, partial curve, poor fit]"
5,Cn1c(CCC(=O)N2CCCOCC2)nc2cc(S(=O)(=O)N3CCCC3)ccc21,inactive
6,COCCNC(=O)[C@H]1C[C@H](Oc2ccccc2)CN1C(=O)Nc1cccc(F)c1,inactive
7,CN(CC(O)COc1cccc(CNCCOc2ccccc2)c1)C1CCCCC1 (stereo not drawn),"inconclusive: 22.4 µM [inhibitor, full curve, poor fit]"
8,COc1cccc(-c2ccccc2CN)c1,inactive
9,COc1ccc(C(=O)N2CCC(Oc3ccc(-c4noc(C5CC5)n4)cc3)C2)cn1 (stereo not drawn),active: 35.5 µM
10,O=C(Nc1cccc(C(F)(F)F)c1)N[C@H]1CO[C@H]2[C@@H]1OC[C@H]2O,inactive
11,Cc1ccoc1C(=O)N1CCC(C2CCN(Cc3cccc(F)c3F)CC2)C1 (stereo not drawn),"inconclusive: 89.1 µM [inhibitor, single point]"
12,COc1cccc(CN2Cc3nc(Oc4ccccc4)ccc3OCC2=O)c1,"inconclusive: 100 µM [inhibitor, partial curve, poor fit]"
13,O=C1NC2(CN(C(=O)c3ccccc3)C2)Oc2ccccc21,inactive
14,O=C(Nc1cccn2nc(C3CCC3)nc12)c1cccc(F)c1,active: 39.8 µM
15,COc1ccc(-c2cc(N3CCC(NC(=O)c4cc(C)ccc4C)CC3)n[nH]2)cc1,"inconclusive: 50.1 µM [inhibitor, partial curve, poor fit]"
16,Cc1ccc(Nc2ccnc(N3CCC(C(=O)NCC(F)F)CC3)n2)cc1,"inconclusive: 50.1 µM [inhibitor, partial curve, poor fit]"
17,COc1ccccc1-c1cccc(C(=O)N2CCN(C(=O)Cc3ccc(F)cc3)CC2)c1,"inconclusive: 50.1 µM [inhibitor, partial curve, poor fit]"
18,COc1ccc(Nc2ccnc(N3CCCC(C(=O)NC4CCCC4)C3)n2)cc1 (stereo not drawn),"inconclusive: 31.6 µM [inhibitor, partial curve, poor fit]"
19,Cc1ccc(CN2CCn3c(nn(-c4ccncc4)c3=O)C2)cc1,"inconclusive: 25.1 µM [inhibitor, full curve]"
20,COC(=O)C1=C(C)N=C2SC=C(CC(=O)NCC3CCCO3)N2C1c1ccccc1F (stereo not drawn),inactive
21,O=C(Cn1cccn1)NC1CC(=O)N(Cc2ccccc2C(F)(F)F)C1 (stereo not drawn),inactive
22,Cc1cc(COc2ccccc2)oc1C(=O)N1C[C@@H]2CCN(C)[C@@H]2C1,inactive
23,CCn1nc(C)c(CNC(=O)c2ccc(N3CC4CC(C3)[C@H]3CCCC(=O)N3C4)nc2)c1C (stereo partly drawn),inactive

row,SMILES,Potency
1,CC(C)Oc1ccc(C(=O)N2Cc3cnn(Cc4ccc(F)cc4)c3C2)cc1,"inconclusive: 44.7 µM [inhibitor, partial curve, poor fit]"
2,O=C(NCCOc1ccccc1)c1cnc2n1CCN(Cc1c[nH]c3ccccc13)CC2,active: 100 µM
3,Cc1ccccc1Cn1cc(-c2ccncc2)cc1C(=O)N1CCN(c2ccccc2)CC1,"inconclusive: 50.1 µM [inhibitor, partial curve, poor fit]"
4,OCC1CN(Cc2ccc(Br)cc2)CC12CCNCC2 (stereo not drawn),active: 39.8 µM
5,Cn1cccc1CN1C[C@@H](CO)[C@H](c2ccncc2)C1,"inconclusive: 31.6 µM [inhibitor, partial curve, poor fit]"
6,COCCNC(=O)C(NC(=O)c1ccccc1Cl)C1CCN(C(=O)C2CCCC2)CC1 (stereo not drawn),"inconclusive: 89.1 µM [inhibitor, single point]"
7,Cn1cccc1CN1CCC2(CC1)NC(=O)c1ccccc1O2,"inconclusive: 126 µM [inhibitor, single point]"
8,CCCn1ccnc1CN1CCc2nc(-c3ccc(Cl)cc3)[nH]c2C1,"inconclusive: 22.4 µM [inhibitor, full curve]"
9,O=C(Cc1ccc2c(c1)OCCCO2)NC1CCCc2c1[nH]c1c(Cl)cccc21 (stereo not drawn),"inconclusive: 31.6 µM [inhibitor, partial curve, poor fit]"
10,O=C(c1cccc(F)c1)N1CCCCCC1CN1CCOCC1 (stereo not drawn),inactive
11,CC(C)C(=O)Nc1cc(C2CC2)nn1C,inactive
12,O=C(O)COc1ccc(-c2nccc3c2C(=O)N(Cc2cccc(C(F)(F)F)c2)CC(CNC(=O)C2CCOCC2)O3)cc1 (stereo not drawn),"inconclusive: 56.2 µM [inhibitor, partial curve, poor fit]"
13,CCOc1ccccc1NC(=O)Cn1cccc1-c1nc(-c2ccc(OC)c(F)c2)no1,"inconclusive: 79.4 µM [inhibitor, single point]"
14,COc1ccccc1-c1cccc(C(=O)N2CCN(C(=O)c3cccc(Cl)c3)CC2)c1,active: 39.8 µM
15,CN1CCN(Cc2nc(C3(O)CCN(C4CCCC4)CC3)cs2)CC1,"inconclusive: 126 µM [inhibitor, single point]"
16,COc1cccc(C(=O)N2CCC3(CC2)NC(=O)N(c2cccc(F)c2)N3)c1,"inconclusive: 39.8 µM [inhibitor, partial curve]"
17,CSc1ccc(CNC(=O)c2cc3n(n2)CC(c2ccc(Cl)cc2)OC3)cc1 (stereo not drawn),"inconclusive: 31.6 µM [inhibitor, partial curve, poor fit]"
18,O=C(CCC1CCN(C(=O)c2ccccc2)CC1)Nc1cccc(Cl)c1,"inconclusive: 70.8 µM [inhibitor, partial curve, poor fit]"
19,O=C(CCc1conc1-c1ccccc1)N1CCN(c2ccccc2Cl)CC1,"inconclusive: 50.1 µM [inhibitor, partial curve, poor fit]"
20,Cc1noc(C)c1CC(=O)N1CCC(Cc2noc(C3CC3)n2)C1 (stereo not drawn),inactive
21,Cc1ccc(-c2cc3c(=O)n(CCNC(=O)c4ccoc4)ccn3n2)c(C)c1,"inconclusive: 10 µM [inhibitor, full curve, poor fit]"
22,O=C(NCc1ccccc1)c1ccc(-c2ccc(N3CCSCC3)nc2)cc1,"inconclusive: 50.1 µM [inhibitor, partial curve, poor fit]"
23,CC(C)c1noc(-c2ccn3c(CNC(=O)c4ccco4)nnc3c2)n1,"inconclusive: 89.1 µM [inhibitor, single point]"

row,SMILES,Potency
1,O=C(Cc1ccc(Cl)cc1)N1CCC2(CC1)NC(=O)N(c1ccc(F)cc1)N2,"inconclusive: 39.8 µM [inhibitor, full curve, poor fit]"
2,COc1ccc(-c2cc(N3CCC(NC(=O)c4ccccc4C)C3)n[nH]2)cc1 (stereo not drawn),"inconclusive: 70.8 µM [inhibitor, single point]"
3,Cc1noc([C@@H]2CC(F)(F)CN2C(=O)c2ccco2)n1,inactive
4,N#Cc1cccnc1-c1ccc(C(=O)N2CCC(N[S+](=O)([O-])c3ccccc3)CC2)cc1,inactive
5,CCOc1ccc(NC(=O)N2CCC(N3CC4CC(C3)[C@H]3CCCC(=O)N3C4)CC2)cc1 (stereo partly drawn),inactive
6,CCC(C)NC(=O)C(NC(=O)c1ccccc1C)C1CCN(C(=O)c2ccc(Cl)cc2)CC1 (stereo not drawn),inactive
7,O=C(NC1CCCCC1)N1Cc2[nH]cnc2C[C@H]1c1nc(-c2ccc(F)c(Cl)c2)no1,inactive
8,COc1cccc(CNC(=O)Nc2cccc(-c3ccc(N4CCOCC4)nn3)c2)c1,"inconclusive: 56.2 µM [inhibitor, partial curve, poor fit]"
9,COCc1ccc2c(c1)c(OC(C)(C)C(=O)NCC[S+](C)(=O)[O-])nn2Cc1cccnc1,inactive
10,O=C(NC1CCCN(c2ccc3nnc(-c4ccccc4)n3n2)C1)c1ccccn1 (stereo not drawn),active: 28.2 µM
11,CC(=O)N1CCC(NC[C@H]2COCc3nc4cc(C)ccc4n32)CC1,inactive
12,CS(=O)(=O)N1CCC(OC2CCN(C(=O)Nc3ccc4c(c3)OCCO4)CC2)CC1,inactive
13,Cc1cc(C)cc(Nc2nc(C)cc(=O)n2CC(=O)Nc2cccc(Br)c2)c1,"inconclusive: 50.1 µM [inhibitor, partial curve, poor fit]"
14,COc1ccc2[nH]cc(CCNC(=O)CC3=C4CCCCC4N(C)C3=O)c2c1 (stereo not drawn),"inconclusive: 89.1 µM [inhibitor, single point]"
15,COC1CCN(CC2CCCCCN2C(=O)CCCc2ccccc2)CC1 (stereo not drawn),"inconclusive: 39.8 µM [inhibitor, full curve]"
16,CCNC(=O)N1CC[C@H]2CC(=O)N([C@H](C(N)=O)C(C)C)CC[C@H]2C1,inactive
17,CCN1c2cc(C(=O)Nc3cc(OC)c(OC)c(OC)c3)ccc2C(=O)N2CCCC21 (stereo not drawn),"inconclusive: 89.1 µM [inhibitor, single point]"
18,CN(C)c1ccc(-c2ccnc(N[C@H]3CO[C@H]4[C@@H]3OC[C@@H]4NC(=O)CSCC(=O)O)n2)cc1,"inconclusive: 44.7 µM [inhibitor, partial curve, poor fit]"
19,CC(C)(O)CCc1ccc(C(=O)N2CCC(c3cccc(O)c3)CC2)cc1,"inconclusive: 35.5 µM [inhibitor, full curve]"
20,Cn1ncc2c(C(=O)NCCc3ccc(Cl)cc3)cc(-c3ccc(Cl)nc3)nc21,inactive
21,Cc1ccc(CN2CCCC(CNS(=O)(=O)C3CC3)C2)cc1C (stereo not drawn),inactive
22,Cc1ccc(-c2cccc(CN3CCCC3C(=O)NC3CC3)c2)cc1Cl (stereo not drawn),active: 31.6 µM
